# Measurements as given in the BET-seq Pho4 binding data (Le et al. 2018).
# This is one part of the list. These are noisy estimates, calculated here from bound and input reads.
# Target: T1, Pho4 (S. cerevisiae) (UniProt P07270)
# T1 sequence: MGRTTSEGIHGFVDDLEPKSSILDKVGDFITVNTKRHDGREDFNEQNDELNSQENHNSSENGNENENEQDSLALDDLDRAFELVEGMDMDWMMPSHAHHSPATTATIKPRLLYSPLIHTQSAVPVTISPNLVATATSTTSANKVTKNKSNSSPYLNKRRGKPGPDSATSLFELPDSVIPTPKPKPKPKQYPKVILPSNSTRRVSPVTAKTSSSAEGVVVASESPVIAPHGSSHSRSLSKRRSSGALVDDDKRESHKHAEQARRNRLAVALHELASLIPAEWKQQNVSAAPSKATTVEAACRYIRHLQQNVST
# Assay: relative binding free energy (BET-seq); higher = weaker binding
# Conditions: reference: library average
row,Sequence,relative binding free energy [kcal/mol]
1,TGTGCCACGTGGCTTT,-0.09
2,TGTCACACGTGAGGAG,0.2
3,ACGAGCACGTGGTTGG,-0.14
4,TAATTCACGTGTTCGT,0.26
5,GTTGTCACGTGCGTCT,0.06
6,GTTCTCACGTGTTCTT,0.3
7,GTTGACACGTGGAGTA,0.03
8,GGTGTCACGTGTCGTA,0.14
9,GGTATCACGTGGCAGT,0.05
10,AGGTGCACGTGGCCGT,-0.18
11,CGGTACACGTGGGTAG,-0.06
12,TGGTGCACGTGGTAAC,-0.05
13,TAATACACGTGAAAGG,0.35
14,GGGGACACGTGGTAAG,0.09
15,GTATGCACGTGGAGCG,0
16,TGAGTCACGTGCTGTA,0.07
17,CGTGTCACGTGGTACT,0
18,CTACTCACGTGGTGGT,0.14
19,AGAGGCACGTGGTACT,-0.23
20,TTGGGCACGTGGAGAT,-0.07
21,ATGGCCACGTGGGGAT,-0.15
22,GACTGCACGTGAAGGG,0.25
23,TGTTGCACGTGTTTTA,-0.03

row,Sequence,relative binding free energy [kcal/mol]
1,GGGGACACGTGTTTTG,0.03
2,AATTTCACGTGTTTAT,0.33
3,TTATTCACGTGCTGTT,0.11
4,TGAGTCACGTGGCCGG,-0.06
5,GGCGTCACGTGTTTGC,0.23
6,TTGAGCACGTGTGCGA,-0.08
7,TCTGACACGTGGTGGT,0
8,AGATGCACGTGTAGAT,0.18
9,AATGTCACGTGCAGTT,0.18
10,GGTGACACGTGTACAG,0.05
11,GTTCGCACGTGTAATT,0.24
12,GCGTGCACGTGTGTTA,-0.04
13,CAATGCACGTGGTTTG,-0.08
14,AGTCGCACGTGGCGTG,-0.21
15,TTGGGCACGTGGTCAT,-0.17
16,GCGGGCACGTGCTGGT,-0.2
17,AGGGTCACGTGCGTAA,0.09
18,GATTTCACGTGTAGCG,0.34
19,TGAGACACGTGTGTAG,0.05
20,TTAGGCACGTGAGTTC,0.2
21,AGGGCCACGTGTAGGG,-0.11
22,TGGGCCACGTGGCGTG,-0.24
23,AGTGACACGTGTGTTC,0.03

row,Sequence,relative binding free energy [kcal/mol]
1,ATTGGCACGTGCAAGG,-0.21
2,TCTTTCACGTGTGTGG,0.38
3,ATATGCACGTGAATGT,0.2
4,TGAGTCACGTGAGTGA,0.2
5,TTCGACACGTGAGGGT,0.28
6,TGAATCACGTGTGGTT,0.25
7,TTTTGCACGTGGTGAA,0.01
8,GGCCTCACGTGTGAGG,0.4
9,AAATTCACGTGTAATG,0.22
10,ATTGGCACGTGATATG,-0.07
11,TGTACCACGTGGATTG,-0.05
12,AAGGACACGTGGTTAT,0.04
13,ACGGGCACGTGTTTTT,0.1
14,CTGAGCACGTGTTCGT,-0.14
15,GGGGACACGTGGGATG,0.02
16,ATATACACGTGGGTGG,-0.08
17,GGTTTCACGTGTCCAG,0.43
18,TTCTACACGTGGGGTG,-0.14
19,TTATGCACGTGGCGGG,-0.2
20,GTACTCACGTGGGAAG,0.23
21,ATTACCACGTGGTGGT,-0.15
22,ATGACCACGTGTTAGT,0.04
23,ACAAGCACGTGAGGGT,0.1

row,Sequence,relative binding free energy [kcal/mol]
1,TATAACACGTGGGAGT,-0.03
2,AATGGCACGTGCTGCT,-0.07
3,GAAGCCACGTGCGGTG,0.08
4,TTTGACACGTGCGCGG,-0.03
5,GAGAGCACGTGCGTGG,-0.16
6,GAGGCCACGTGGTGTA,-0.13
7,GTTCGCACGTGCAGGG,0.07
8,TTTGCCACGTGGTATG,-0.07
9,CAGGTCACGTGTTTGT,0.11
10,TCTGGCACGTGAGGCG,0.17
11,GTTATCACGTGCGAGG,0.26
12,TGATCCACGTGTAAGG,0.12
13,ATGAACACGTGGTGTG,-0.04
14,GGGCACACGTGGGCGA,-0.08
15,ATTAACACGTGAATTT,0.17
16,AGGGTCACGTGTGCTA,0.18
17,TTGGTCACGTGTTCTC,0.14
18,TAAGTCACGTGAGTAA,0.36
19,TAACGCACGTGAGGTG,0.05
20,TTACTCACGTGTGATG,0.27
21,GTGTGCACGTGGTGGG,-0.07
22,CTTGGCACGTGGTGTG,-0.08
23,TTAGACACGTGTATAG,-0.04

row,Sequence,relative binding free energy [kcal/mol]
1,TGAGACACGTGTTGAA,0.13
2,TTATACACGTGTAAAT,0.05
3,GGAAGCACGTGAGAGT,0.22
4,GGTGACACGTGTATTT,0.19
5,ATTGTCACGTGTAGGG,0.08
6,GGGTGCACGTGGGGGA,-0.16
7,CGAAACACGTGAGGGT,0.17
8,GTTTGCACGTGCATAT,-0.15
9,TGTCACACGTGAGGTG,0.21
10,TTCTGCACGTGATGTT,0.12
11,GATATCACGTGAAGGG,0.41
12,ATGCTCACGTGTTGTG,0.07
13,TAGTGCACGTGTGAAA,0.06
14,GCGGACACGTGGGCGG,-0.08
15,GTAAGCACGTGAGTTG,0.14
16,GGTGGCACGTGTCCGT,-0.11
17,TGCGCCACGTGGGTGG,-0.29
18,TGGATCACGTGAGTCG,0.32
19,AGGCTCACGTGGGCGA,0.21
20,TTGTTCACGTGAGGTC,0.4
21,TTGATCACGTGTGTGT,0.16
22,CGGAACACGTGGGGAG,-0.06
23,AGTGTCACGTGGAAGC,0.1
